# Data from a compilation of properties of binary mixtures (doi:10.1007/s10953-011-9785-0).
# The densities may have been worked out from excess volumes.
# Test: xn = mol fraction of the nth substance listed
# Settings: 101 kPa
smiles,measurement,setting,value
CCO + CCCCCC[n+]1ccn(CCC#N)c1.[Br-],mass density,"293.15 K, x1 = 1",789.3 kg/m3
same,mass density,"298.15 K, x1 = 1",785.5 kg/m3
same,mass density,"303.15 K, x1 = 1",780.7 kg/m3
same,mass density,"313.15 K, x1 = 1",772.5 kg/m3
same,mass density,"318.15 K, x1 = 1",767.7 kg/m3
same,mass density,"323.15 K, x1 = 1",763.6 kg/m3
CCCCCC[n+]1ccn(CCC#N)c1.[Br-] + CCO,mass density,"293.15 K, x2 = 0",1233.4 kg/m3
same,mass density,"293.15 K, x2 = 0.0679",1227.3 kg/m3
same,mass density,"293.15 K, x2 = 0.1407",1219.4 kg/m3
same,mass density,"293.15 K, x2 = 0.2074",1210.7 kg/m3
same,mass density,"293.15 K, x2 = 0.3178",1192.9 kg/m3
same,mass density,"293.15 K, x2 = 0.422",1171.9 kg/m3
same,mass density,"293.15 K, x2 = 0.5219",1146.5 kg/m3
same,mass density,"293.15 K, x2 = 0.5976",1122.6 kg/m3
same,mass density,"293.15 K, x2 = 0.7075",1077.3 kg/m3
same,mass density,"293.15 K, x2 = 0.7986",1024.8 kg/m3
same,mass density,"293.15 K, x2 = 0.8955",943.3 kg/m3
same,mass density,"298.15 K, x2 = 0",1229.7 kg/m3
same,mass density,"298.15 K, x2 = 0.0679",1223.7 kg/m3
same,mass density,"298.15 K, x2 = 0.3178",1189.3 kg/m3
same,mass density,"298.15 K, x2 = 0.422",1168.3 kg/m3
same,mass density,"298.15 K, x2 = 0.5219",1142.9 kg/m3
same,mass density,"298.15 K, x2 = 0.5976",1118.9 kg/m3
same,mass density,"298.15 K, x2 = 0.7075",1073.5 kg/m3
same,mass density,"298.15 K, x2 = 0.7986",1021.1 kg/m3
same,mass density,"298.15 K, x2 = 0.9477",874.8 kg/m3
same,mass density,"303.15 K, x2 = 0",1226.6 kg/m3
same,mass density,"303.15 K, x2 = 0.0679",1220.6 kg/m3
same,mass density,"303.15 K, x2 = 0.2074",1204 kg/m3
same,mass density,"303.15 K, x2 = 0.3178",1186.1 kg/m3
same,mass density,"303.15 K, x2 = 0.422",1164.9 kg/m3
same,mass density,"303.15 K, x2 = 0.5219",1139.3 kg/m3
same,mass density,"303.15 K, x2 = 0.7075",1069.6 kg/m3
same,mass density,"303.15 K, x2 = 0.7986",1017 kg/m3
same,mass density,"303.15 K, x2 = 0.8955",935.6 kg/m3
same,mass density,"303.15 K, x2 = 0.9477",870.8 kg/m3
same,mass density,"308.15 K, x2 = 0",1223 kg/m3
same,mass density,"308.15 K, x2 = 0.0679",1217.1 kg/m3
same,mass density,"308.15 K, x2 = 0.1407",1209.3 kg/m3
same,mass density,"308.15 K, x2 = 0.2074",1200.4 kg/m3
same,mass density,"308.15 K, x2 = 0.3178",1182.4 kg/m3
same,mass density,"308.15 K, x2 = 0.422",1161.2 kg/m3
same,mass density,"308.15 K, x2 = 0.5219",1135.6 kg/m3
same,mass density,"308.15 K, x2 = 0.7075",1065.7 kg/m3
same,mass density,"308.15 K, x2 = 0.9477",867.1 kg/m3
same,mass density,"313.15 K, x2 = 0",1219.2 kg/m3
same,mass density,"313.15 K, x2 = 0.1407",1205.6 kg/m3
same,mass density,"313.15 K, x2 = 0.2074",1196.7 kg/m3
same,mass density,"313.15 K, x2 = 0.3178",1178.7 kg/m3
same,mass density,"313.15 K, x2 = 0.422",1157.5 kg/m3
same,mass density,"313.15 K, x2 = 0.5219",1131.8 kg/m3
same,mass density,"313.15 K, x2 = 0.5976",1107.6 kg/m3
same,mass density,"313.15 K, x2 = 0.7075",1061.9 kg/m3
same,mass density,"313.15 K, x2 = 0.7986",1009.3 kg/m3
same,mass density,"313.15 K, x2 = 0.8955",928.1 kg/m3
same,mass density,"313.15 K, x2 = 0.9477",863.7 kg/m3
same,mass density,"318.15 K, x2 = 0.0679",1209.7 kg/m3
same,mass density,"318.15 K, x2 = 0.1407",1202 kg/m3
same,mass density,"318.15 K, x2 = 0.2074",1193 kg/m3
same,mass density,"318.15 K, x2 = 0.3178",1174.9 kg/m3
same,mass density,"318.15 K, x2 = 0.5219",1127.8 kg/m3
same,mass density,"318.15 K, x2 = 0.7075",1057.6 kg/m3
same,mass density,"318.15 K, x2 = 0.7986",1004.9 kg/m3
same,mass density,"318.15 K, x2 = 0.9477",859.7 kg/m3
same,mass density,"323.15 K, x2 = 0.0679",1206.2 kg/m3
same,mass density,"323.15 K, x2 = 0.1407",1198.5 kg/m3
same,mass density,"323.15 K, x2 = 0.3178",1171.3 kg/m3
same,mass density,"323.15 K, x2 = 0.422",1149.9 kg/m3
same,mass density,"323.15 K, x2 = 0.5976",1099.8 kg/m3
same,mass density,"323.15 K, x2 = 0.7986",1001 kg/m3
same,mass density,"323.15 K, x2 = 0.8955",919.8 kg/m3
same,mass density,"323.15 K, x2 = 0.9477",856.2 kg/m3
